# Experimental data as given in PubChem BioAssay AID588855 (National Center for Advancing Translational Sciences (NCATS), 2011).
# Values joined by “and” are separate entries in the source; they are usually repeats but may differ in a detail not shown here. Identical values can stand only once. Screen size: about 410,000 compounds; about 5,000 (1.2%) were called active. Inconclusive means that the source gave no clear call. Such entries were picked first, then a sample of the others. The call rests on the fitted dose curve; in most records, active means well fitted inhibition curve with a large enough effect; inconclusive means small, poorly fitted or top-dose-only effect; inactive means no such curve, though single readings can be large or run the other way. Potencies of inconclusive entries are doubtful fits and often do not repeat.
# Test: qHTS for Inhibitors of TGF-b; further: nearly all actives have a fitted effect of over 65% in size
# Settings: HepG2 CAGA-GFP TGF-b/SMAD3 reporter, GFP fluorescence, 18 h, TGF-beta stimulated, 500 pg/mL final; series mostly up to 46.1 µM; activity, negative = inhibition: at the top concentration
# Outline: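 HEPG2 CAGA-GFP cells (1000/well, DMEM with 1% FBS) were pre-incubated 2 h at 37 degrees C, given compound by pin tool, then stimulated with TGF-beta at 500 pg/mL final for 18 h before per-cell GFP fluorescence imaging.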
# On the % scale 0 is the no-effect control and ±100 the full control effect; potency means the concentration at half of the fitted maximal effect; tags describe the fitted curve by direction and shape.
SMILES,Potency,"activity, negative = inhibition"
CC(C(=O)Nc1ccc(F)c(F)c1F)N(C)CCOc1ccccc1 (centres undefined),"inconclusive: 3.16 µM [inhibitor, partial curve]",
COc1ccccc1Nc1nc(N)nc(CSC(=S)N2CCCCC2C)n1 (centres undefined),,inactive: -0.385%
COc1ccc(CN2C(=O)C(CC(C)C)Nc3ncnc(N4CCOCC4)c32)cc1 (centres undefined),,inactive: 6.07%
COc1cc(NC(=O)NC(C)c2c(-n3cccc3)sc3c2CCCC3)cc(OC)c1OC (centres undefined),"inconclusive: 25.1 µM [inhibitor, single point]",
O=C(Nc1ccccc1)Nc1cccc(-c2cn3cccnc3n2)c1,,inactive: 0.705%
CCC(=Nc1ccc(N)cc1)C1=C(O)C(C(=O)OC)C(C)(C)CC1=O (centres undefined),"inconclusive: 14.1 µM [inhibitor, partial curve, poor fit]",
CC(=O)C1=CCC(c2ccccc2)N(S(=O)(=O)c2ccc(Cl)cc2)C1 (centres undefined),"inconclusive: 0.112 µM [inhibitor, full curve, poor fit]",
COC(=O)CC1C(=O)NCCN1Cc1cn(-c2ccc(C)cc2)nc1-c1cccc(C)c1 (centres undefined),,inactive: -16%
CCOc1ccc(CNC(=O)Cn2cc3c(n2)-c2c(oc(C(=O)N4CCOCC4)c2C)CC3)cc1,"inconclusive: 14.1 µM [inhibitor, single point]",
O=S(=O)(c1cc(Cl)ccc1Cl)n1ccnc1,"inconclusive: 35.5 µM [inhibitor, single point]",
O=C(C[C@@H]1C/C=C\C[C@H](NC(=O)OCC2c3ccccc3-c3ccccc32)C(=O)O[C@H](c2ccccc2)CNC1=O)NCCO,,inactive: -10.5%
O=C(N/N=C/c1cccc([N+](=O)[O-])c1)c1cc(-c2ccc3c(c2)OCO3)n[nH]1,"inconclusive: 1.26 µM [inhibitor, full curve]",
CC(C)=CCC/C(C)=C/CNC(=O)C[C@H]1C[C@H](C(=O)N2CCCCC2)[C@@]2(CCc3ccccc3)c3[nH]c4cc(-c5ccco5)ccc4c3CCN2C1=O,"inconclusive: 3.98 µM [inhibitor, full curve, poor fit]",
NC1=NC[C@H](Cc2ccc(O)cc2)N1CCc1cccc(F)c1,"inconclusive: 12.6 µM [inhibitor, partial curve]",
CCOC(=O)c1cc(-c2ccccc2)n(CCC(=O)N2CCN(c3ccccc3OC)CC2)c1C,"inconclusive: 35.5 µM [inhibitor, single point]",
Cc1noc(C)c1NC(=O)N(C)C[C@H]1Oc2ccc(NS(=O)(=O)c3cccs3)cc2C(=O)N([C@H](C)CO)C[C@@H]1C,"inconclusive: 0.501 µM [inhibitor, partial curve, poor fit]",
CCCC(=O)Oc1ccc(C2NC(=O)c3ccccc3O2)cc1OC (centres undefined),,inactive: 3.64%
CCOc1cc(Br)ccc1S(=O)(=O)N1CC(C)OC(C)C1 (centres undefined),"inconclusive: 35.5 µM [inhibitor, single point]",
COCCn1c(=NC(=O)c2ccc3c(c2)OCCO3)sc2cc(C(=O)OC)ccc21,"inconclusive: 6.31 µM [inhibitor, single point]",
O=C(C1CCN(S(=O)(=O)N2CCOCC2)CC1)N1CCN(Cc2ccc3c(c2)OCO3)CC1,"inconclusive: 20 µM [inhibitor, partial curve, poor fit]",
COC(=O)c1sccc1NC(=O)Nc1cccc(C)c1C,,inactive: 31.4%
COc1ccc(C(=O)Nc2ccc(Nc3ccccc3)cc2)cc1[N+](=O)[O-],"inconclusive: 25.1 µM [inhibitor, single point]",

SMILES,Potency,"activity, negative = inhibition"
COc1ccc(-c2ccnc3nc(/N=C/N(C)C)nn23)cc1,"inconclusive: 6.31 µM [inhibitor, single point]",
COc1ccc(N(C(=O)c2ccco2)S(=O)(=O)c2cc(OC)ccc2OC)cc1,,inactive: 2.29%
Cc1ccc2c(CC(=O)Nc3ccc(S(=O)(=O)N4CCCCC4)cc3)coc2c1,"inconclusive: 31.6 µM [inhibitor, single point]",
CCC(C)NS(=O)(=O)c1ccc(NC(=O)C(Sc2ccccc2)c2ccccc2)cc1 (centres undefined),active: 12.6 µM,
C/C=C/c1cccc(-c2nc(C(=O)NC3CCCC3)cc3c2[C@@H](CCO)N(S(=O)C(C)(C)C)C3)c1 (some centres undefined),"inconclusive: 17.8 µM [inhibitor, partial curve]",
C=CCn1c(SCCN)nnc1-c1cccc(S(=O)(=O)N2CCOCC2)c1,"inconclusive: 11.2 µM [inhibitor, partial curve, poor fit]",
CCCCCCCCCCCCN1[C@@H](CC(=O)O)c2cc(C(F)(F)F)ccc2S1(=O)=O,"inconclusive: 22.4 µM [inhibitor, single point] and inconclusive: 35.5 µM [inhibitor, single point]",
CCN1CCN(S(=O)(=O)Cc2ccccc2Cl)CC1,,inactive: 17.6%
Oc1c(C(c2ccccc2F)N2CCN(Cc3ccccc3)CC2)sc2nc(-c3ccco3)nn12 (centres undefined),"inconclusive: 22.4 µM [inhibitor, single point]",
Cc1c(C(=O)N2CCC(c3nc4ccccc4s3)CC2)oc2ccc(Cl)cc12,"inconclusive: 35.5 µM [inhibitor, single point]",
Cc1ccc(S(=O)(=O)N2CCN(CCc3ccccc3)CC2)c(C)c1,"inconclusive: 6.31 µM [inhibitor, full curve]",
Nc1nc(SCC(=O)Nc2ccccc2Oc2ccccc2)n[nH]1,"inconclusive: 17.8 µM [inhibitor, single point]",
CCOc1cc(/C=N/NC(N)=S)cc(Br)c1OCc1ccccc1C,,inactive: -23%
CCOc1cccc(/C=N/NC(=O)C2CCCC2)c1O,"inconclusive: 11.2 µM [inhibitor, partial curve]",
CCOC(=O)N1CCN(C(=O)c2cnn3c(C(F)F)cc(-c4ccc(C)cc4)nc23)CC1,,inactive: -27.4%
CC(C)N1CCC(N2CCN(Cc3ccc(-c4ccc(Cl)cc4)o3)CC2CCO)CC1 (centres undefined),,inactive: -0.0297%
CCN(CC)CC#CCC(O)(c1ccccc1)c1ccc(Br)cc1 (centres undefined),"inconclusive: 35.5 µM [inhibitor, single point]",
O=C(CN1CCCCCC1)Nc1ccc(Br)cc1,,inactive: -4.72%
COc1ccc(CNC(=O)C[C@H]2C[C@H](C(=O)N3CCOCC3)[C@@]3(C)c4[nH]c5ccc(Cl)cc5c4CCN3C2=O)cc1OC,"inconclusive: 15.8 µM [inhibitor, single point]",
COc1ccccc1CCc1nnc(N)s1,"inconclusive: 3.16 µM [inhibitor, partial curve, poor fit]",
COc1ccccc1NC(=O)CC(=O)CSc1nnc(-c2ccc(C)cc2)n1C,"inconclusive: 1.78 µM [inhibitor, partial curve, poor fit]",
COc1cc(NS(=O)(=O)N2CCCC2)cc(OC)c1OC,"inconclusive: 2 µM [inhibitor, partial curve, poor fit]",

SMILES,Potency,"activity, negative = inhibition"
Cc1cc(C)cc(OCC(=O)OCC(=O)c2cc(C)n(C3CC3)c2C)c1,,inactive: -6.49%
Cc1noc(C)c1C(=O)Nc1nc(-c2ccc(F)c(F)c2)cs1,"inconclusive: 20 µM [inhibitor, single point]",
COc1ccc(CCNC(=S)N2CCC(C(=O)c3ccc(F)cc3)CC2)cc1OC,active: 11.2 µM,
Cc1ccc(-c2cc(C(=O)NCc3cccnc3)no2)cc1,,inactive: -6.19%
Nc1nc(Sc2c([N+](=O)[O-])cc(C(F)(F)F)cc2[N+](=O)[O-])n[nH]1,"inconclusive: 35.5 µM [inhibitor, single point]",
Cc1cccc(-c2ccc3ncnc(NCc4cccnc4)c3c2)c1,"inconclusive: 5.01 µM [inhibitor, full curve, poor fit]",
COc1ccc(NC(=O)c2cc3c(s2)CCC(C)C3)cc1S(=O)(=O)N1CCOCC1 (centres undefined),"inconclusive: 5.62 µM [inhibitor, partial curve, poor fit]",
O=C(C(=O)N1CCN(c2ccccc2F)CC1)c1cn(CC(=O)N2CCCC2)c2ccccc12,"inconclusive: 15.8 µM [inhibitor, single point]",
Cc1ccc(C)c2[nH]c(=O)c(CCNC(=O)c3cc4ccccc4o3)cc12,,inactive: -0.436%
Cc1nc(SCC(=O)NCC2CCCO2)c2c3c(sc2n1)CCC3 (centres undefined),,inactive: -9.75%
CCOC(=O)C(C)On1c(-c2cccc(Cl)c2)nc2ccc([N+](=O)[O-])cc21 (centres undefined),"inconclusive: 17.8 µM [inhibitor, single point]",
CC1CC(C)CN(C(=O)C(C)N2CCN(S(=O)(=O)c3ccc(Br)s3)CC2)C1 (centres undefined),"inconclusive: 35.5 µM [inhibitor, single point]",
COc1cccc(CNc2nc3cc(-c4cscc4C)sc3c(=O)n2C)c1,"inconclusive: 12.6 µM [inhibitor, partial curve, poor fit]",
Cc1cc(C)nc(-n2nc(C)c3c2NC(=O)CC3c2cccc(O)c2)n1 (centres undefined),,inactive: 0.549%
O=c1[nH]c(CN2CCN(S(=O)(=O)/C=C/c3ccccc3)CC2)nc2cc(Cl)ccc12,"inconclusive: 12.6 µM [inhibitor, partial curve, poor fit]",
CCNC(=S)N/N=C(\C)c1cc2ccccc2o1,"inconclusive: 35.5 µM [inhibitor, single point]",
CC(C)Cc1ccc(S(=O)(=O)N2CCN(Cc3noc(CCC(=O)N4CCCCC4)n3)CC2)cc1,active: 11.2 µM,
Oc1cccc(-c2nc3c4c(ncn3n2)-c2ccccc2CC42CCCC2)c1,"inconclusive: 28.2 µM [inhibitor, single point]",
CCN(CC)CC(=O)NCC1(c2ccccc2)CCCC1,"inconclusive: 35.5 µM [inhibitor, partial curve, poor fit]",
Cc1ccc(Cl)cc1NC(=O)Cn1c(=O)n(CCC(=O)NCc2ccc3c(c2)OCO3)c(=O)c2sccc21,"inconclusive: 14.1 µM [inhibitor, partial curve, poor fit]",
